Literature values, collected in patent EP2150620B1, “Method for preparing C-6 phosphorylated D-aldohexoses and C-6 phosphorylated D-aldohexose derivatives, and new C-6 phosphorylated D-aldohexose derivatives” (Libragen, priority 2007, dated 2008).

Conditions: based on acute oral and inhalation data with rats; cited from earlier work

## ClP(Cl)Cl [PCl3]
  toxicity classification: highly toxic to mammals
